The results in this text go back to the antibiotic and cytotoxicity screens of Wong et al. (2023).

Each structure is given as a SMILES string. Some of the results follow.

In one experiment the test system is HSkMC. Briefly: cytotoxicity call (relative viability < 0.9). The settings on record: 10 µM.
Another experiment concerns HepG2. Briefly: cytotoxicity call (relative viability < 0.9). The following applies: 10 µM.
A further experiment relates to S. aureus RN4220. In words: growth inhibition call (relative growth <= 0.2). The following applies: 50 µM.

As for `COc1ccc(S(=O)(=O)Nc2ccc3c(c2)C(=O)N([C@H](C)CO)C[C@H](C)[C@@H](CN(C)Cc2ccc(Cl)c(Cl)c2)OCCCC[C@H](C)O3)cc1`, the cytotoxicity call with HSkMC and with HepG2 was “active” each time. Also, in the experiment with S. aureus RN4220, the growth inhibition call is “inactive”.
Take `COc1cccc(NC(=O)N2C[C@@H](O)COC[C@H]3O[C@@H](CC(=O)NC4Cc5ccccc5C4)CC[C@@H]32)c1`: the cytotoxicity call in the experiment with HSkMC and in the experiment with HepG2 was “inactive” each time. The growth inhibition call in the experiment with S. aureus RN4220 is “inactive”.
On to `COc1ccc(CN(C)C[C@@H]2OCCCC[C@H](C)Oc3ccc(NC(=O)Nc4ccc5c(c4)OCO5)cc3C(=O)N([C@H](C)CO)C[C@H]2C)cc1`, for which the cytotoxicity call with HSkMC and in the experiment with HepG2 was “inactive” each time. The growth inhibition call in the experiment with S. aureus RN4220 is “inactive”.
Take `Cc1noc(C)c1NC(=O)Nc1ccc2c(c1)C(=O)N([C@@H](C)CO)C[C@H](C)[C@@H](CN(C)S(=O)(=O)c1ccc(Cl)cc1)OCCCC[C@H](C)O2`: the cytotoxicity call in the experiment on HSkMC and in the experiment with HepG2 was “inactive” each time. The growth inhibition call with S. aureus RN4220 was “inactive”.
Take `C#CC1(O)CCC2C3CCC4=C(CCC(=O)C4)C3CCC21C` (configuration not stated): the cytotoxicity call in the experiment on HSkMC and with HepG2 was “inactive” in each case. Also, the growth inhibition call in the experiment with S. aureus RN4220 is “inactive”.
With `C[C@H](CO)N1C[C@H](C)[C@H](CN(C)S(=O)(=O)c2ccccc2)OCCCC[C@H](C)Oc2ccc(NC(=O)C3CCCCC3)cc2C1=O`, the cytotoxicity call in the experiment on HSkMC and in the experiment on HepG2 was “inactive” each time. The growth inhibition call in the experiment with S. aureus RN4220 was “inactive”.
On to `C[C@@H]1CN([C@@H](C)CO)C(=O)c2cc(NS(C)(=O)=O)ccc2O[C@H]1CN(C)C(=O)Nc1ccc(F)cc1`, for which the cytotoxicity call in the experiment with HSkMC and in the experiment on HepG2 was “inactive” throughout. For the same compound, the growth inhibition call with S. aureus RN4220 is “inactive”.
In the case of `C[C@@H]1CCCCO[C@H](CN(C)CC2CCCCC2)[C@H](C)CN([C@H](C)CO)C(=O)c2cc(NS(=O)(=O)c3ccccc3)ccc2O1`, the cytotoxicity call in the experiment with HSkMC and with HepG2 was “inactive” in each case. In addition, in the experiment with S. aureus RN4220, the growth inhibition call was “inactive”.
As for `CC(/C=C/C(=O)NO)=C\c1cccc(OC[C@@H]2[C@H]3C[C@H]4c5[nH]c6ccccc6c5CCN4C[C@@H]3CC[C@@H]2O)c1`, the cytotoxicity call in the experiment on HSkMC (human skeletal muscle cells) and in the experiment with HepG2 was “inactive” each time. In addition, the growth inhibition call in the experiment on S. aureus RN4220 was “inactive”.
